{
  "source": "PubChem BioAssay AID686978",
  "about": "(National Center for Advancing Translational Sciences (NCATS), 2013)",
  "note": "Among all 420,000 compounds or so, about 64,000 (15%) were called active. The inconclusive results got no clear call from the source; some entries with a clear call stand among them for comparison. Calls follow the shape of the dose curve; as a rule, active = well fitted inhibition curve with a large enough effect; inconclusive = small, poorly fitted or top-dose-only effect; inactive = flat fitted curve, though single readings scatter. No potency is given beside an inconclusive call; the fits are too rough. % is scaled to controls: 0 for no effect and ±100 for the full control effect; potency is read from the fitted curve at half-maximal effect; tags tell the direction and shape of the fitted curve.",
  "data": [
    {"assay": "qHTS for Inhibitors of human tyrosyl-DNA phosphodiesterase 1 (TDP1): qHTS in cells in absence of CPT; also: nearly all actives have a fitted effect of over 55% in size", "settings": "DT40 Tdp1-/- hTDP1 cells, no CPT, ATP luminescence, 48 h; activity change, negative = growth inhibition: at 46.2 µM (top of the series) unless noted", "how_it_was_run": "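Growth of hTDP1-complemented DT40 Tdp1-knockout cells is measured by ATP luminescence after at least 48 hr compound exposure at 37 °C, with DMSO substituting for the 20 nM CPT used in the parallel screen.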", "values": [
      {"smiles": "O=C(Nc1ccc2c(c1)OCCO2)c1ccc2ccccc2n1", "Potency": "inconclusive [inhibitor, partial curve]"},
      {"smiles": "Cc1cc2oc(C(=O)Nc3nc(-c4ccccc4)ns3)c(C)c2cc1Cl", "activity change, negative = growth inhibition": "inactive: -91.4%"},
      {"smiles": "O=C(CCc1nnc(CCCc2ccccc2)o1)NCCCC1CCCC1", "Potency": "inconclusive [inhibitor, single point]"},
      {"smiles": "CN1CCN(C(CNC(=O)C(=O)Nc2ccc(F)cc2)c2cccnc2)CC1", "note": "(stereo not drawn)", "activity change, negative = growth inhibition": "inactive: -2.8%"},
      {"smiles": "Oc1ccc(C[C@H]2CNC(=S)N2CC2CCCN2C[C@H](Cc2ccc(O)cc2)N2C[C@H](Cc3ccccc3)N(CC3CCCCC3)C2=S)cc1", "note": "(stereo partly drawn)", "Potency": "active: 16.4 µM"},
      {"smiles": "CC1CCN(C(=O)CN2C(=O)C(=O)N(C(C)C)C2=O)c2ccccc2S1", "note": "(stereo not drawn)", "activity change, negative = growth inhibition": "inactive: -3.76%"},
      {"smiles": "Cc1cc2oc(=O)c3c(c2cc1OC(=O)c1ccco1)CCCC3", "Potency": "inconclusive [inhibitor, single point]"},
      {"smiles": "CC(=O)c1ccc(NC(=O)/C(=C\\c2ccccc2)NC(=O)/C=C/c2ccccc2)cc1", "activity change, negative = growth inhibition": "inactive: -2.76%"},
      {"smiles": "COc1ccc(S(=O)(=O)N2CCOC2CNC(=O)C(=O)NCCc2ccccc2)cc1", "note": "(stereo not drawn)", "Potency": "inconclusive [inhibitor, single point]"},
      {"smiles": "Cc1ccc(C)c(Cn2nnc(C(=O)NCc3ccccc3)c2N)c1", "Potency": "inconclusive [inhibitor, single point]"},
      {"smiles": "CCOc1ccc(C(=O)NCC(=O)OCC(=O)N(C)CC(=O)Nc2ccccc2CC)cc1OCC", "Potency": "inconclusive [inhibitor, single point]"},
      {"smiles": "Clc1ccc2nc(-c3ccccc3)[nH]c2c1", "Potency": "active: 26.6 µM"},
      {"smiles": "O=C(CC(C(=O)O)c1cccc(Cl)c1)c1ccccc1", "note": "(stereo not drawn)", "activity change, negative = growth inhibition": "inactive: 9.38%"},
      {"smiles": "S=C(Nc1ccc(Cl)cc1Cl)NC1CCCCC1", "Potency": "inconclusive [inhibitor, single point]"},
      {"smiles": "CC(C)(CNC(=O)c1cc(=O)[nH]c2ccccc12)N1CCOCC1", "activity change, negative = growth inhibition": "inactive: -4.44%"},
      {"smiles": "CCC(CC)C(=O)N1CCc2cc(OC)c(OC)cc2C1COc1ccccc1OC", "note": "(stereo not drawn)", "Potency": "inconclusive [inhibitor, single point]"},
      {"smiles": "CC(=O)c1ccc(NS(=O)(=O)c2ccc3[nH]c4c(c3c2)CCCCCC4)cc1", "Potency": "inconclusive [inhibitor, partial curve]"},
      {"smiles": "O=C(O)COc1ccccc1/C=N/NC(=O)CNC(=O)c1ccc(F)cc1", "Potency": "inconclusive [inhibitor, single point]"},
      {"smiles": "CC(N)c1csc(Nc2ncccn2)n1", "note": "(stereo not drawn)", "Potency": "inconclusive [inhibitor, partial curve]"},
      {"smiles": "COc1ccc(S(=O)(=O)Nc2ccccc2C(=O)NCc2cccnc2)cc1OC", "activity change, negative = growth inhibition": "inactive: 8.9%"},
      {"smiles": "CCOC(=O)c1sc(NC(=O)CSc2ncccn2)c(C#N)c1C", "activity change, negative = growth inhibition": "inactive: -16%"},
      {"smiles": "Cc1nc2cc(-c3cccc(F)c3)nn2c(C)c1CCC(=O)NC1CCCCC1", "activity change, negative = growth inhibition": "inactive: 5.37%"},
      {"smiles": "CCOc1ccc(S(=O)(=O)Nc2ccc(C(=O)NCC(c3ccco3)N3CCCCC3)cc2)cc1", "note": "(stereo not drawn)", "Potency": "inconclusive [inhibitor, single point]"},
      {"smiles": "C=CCSc1nc2c(c(=O)[nH]c(=O)n2C)n1Cc1ccc(C)cc1", "Potency": "inconclusive [inhibitor, partial curve]"},
      {"smiles": "CCCc1nc2c(C)cc(Br)cn2c1Cc1ccc(OC)cc1C", "Potency": "active: 20.6 µM"},
      {"smiles": "CC1(C(=O)O)CCN1C(=O)c1ccccc1F", "note": "(stereo not drawn)", "activity change, negative = growth inhibition": "inactive: -6.95%"},
      {"smiles": "Cc1ccc(NS(=O)(=O)c2ccc3c(c2)oc(=O)n3C)cc1C", "Potency": "inconclusive [inhibitor, partial curve]"},
      {"smiles": "Cc1cccc2sc(NC(=O)C3=NN(c4ccccc4)C(=O)CC3)nc12", "Potency": "inconclusive [inhibitor, full curve, poor fit]"},
      {"smiles": "Cc1ccc(C(C)C)cc1OCC(=O)NNC(=O)Nc1ccccc1", "activity change, negative = growth inhibition": "inconclusive: -32% [inhibitor]"},
      {"smiles": "O=C(CN1CCC(C(=O)c2cccc(F)c2)CC1)NCc1cccs1", "Potency": "inconclusive [inhibitor, partial curve]"},
      {"smiles": "O=C(c1cc(C(F)(F)F)cc(C(F)(F)F)c1)N1CCC2(CCN(Cc3ccccc3)CC2)CC1", "Potency": "inconclusive [inhibitor, single point]"},
      {"smiles": "CCCc1nnc(SCC(=O)N2CCCCC2C)n1CCOC", "note": "(stereo not drawn)", "activity change, negative = growth inhibition": "inconclusive: -31.5% [inhibitor]"},
      {"smiles": "O=C(c1ccc2c(c1)N(Cc1cccc(Cl)c1)C(=O)c1ccccc1S2(=O)=O)N1CCN(c2cccc(C(F)(F)F)c2)CC1", "Potency": "inconclusive [inhibitor, partial curve]"},
      {"smiles": "COc1ccc(-c2nn(C)c3sc(C(=O)N4CCN(c5cc(Cl)ccc5C)CC4)cc23)cc1OC", "Potency": "active: 18.4 µM"},
      {"smiles": "O=C(N/N=C/c1ccc(F)cc1)c1cccc(NC(=O)c2ccc(F)cc2)c1", "Potency": "inconclusive [inhibitor, single point]"},
      {"smiles": "Cc1onc(-c2c(F)cccc2Cl)c1C(=O)Nc1cccc(S(=O)(=O)N2CCCCC2)c1", "Potency": "inconclusive [inhibitor, single point]"},
      {"smiles": "Cc1ccc(S(=O)(=O)N2[C@@H](c3ccc(C(C)(C)C)cc3)C(C(=O)O)=CC[C@H]2c2cccs2)cc1", "Potency": "inconclusive [inhibitor, single point]"},
      {"smiles": "COc1cc(OC)c2c(-c3ccccc3)cc(=O)oc2c1C(CC(=O)N1CCOCC1)c1ccc2c(c1)OCO2", "note": "(stereo not drawn)", "Potency": "inconclusive [inhibitor, single point]"},
      {"smiles": "COC(=O)C1=C(C)N(c2ccc(F)cc2)/C(=C/c2ccc(O)cc2)C1=O", "Potency": "inconclusive [inhibitor, single point]"},
      {"smiles": "COc1ccc(CCNC(=O)Cn2c(=O)c3cccn3c3ccc(F)cc32)cc1OC", "Potency": "inconclusive [inhibitor, partial curve]"},
      {"smiles": "COc1ccc(C(=O)CCC(=O)Nc2cccc(C(C)=O)c2)cc1", "activity change, negative = growth inhibition": "inactive: -1.86%"},
      {"smiles": "NS(=O)(=O)c1ccc(NC(=S)Nc2ccc(Br)c(Cl)c2)cc1", "Potency": "inconclusive [inhibitor, single point]"},
      {"smiles": "CC(C)[C@H](NC(=O)c1c(F)cccc1F)C(=O)N1CCN(c2ccc(F)cc2)CC1", "Potency": "active: 20.6 µM"},
      {"smiles": "COc1ccc(CNC(=O)COc2ccc(S(=O)(=O)N3CCCCC3)cc2)cc1", "activity change, negative = growth inhibition": "inconclusive: -33% [inhibitor]"},
      {"smiles": "CCOc1ccc(-c2cnc(NCc3cccc(Cl)c3)n2C)cc1", "Potency": "inconclusive [inhibitor, single point]"},
      {"smiles": "Cc1ccc(O)c(Nc2ncnc3ccccc23)c1", "Potency": "inconclusive [inhibitor, single point]"},
      {"smiles": "O=C(CN1C(=O)NC2(CCCCCCC2)C1=O)NCc1ccccc1Cl", "Potency": "inconclusive [inhibitor, single point]"},
      {"smiles": "CC1CCCC(C)N1CCOc1cc(N)ccc1C#N", "note": "(stereo not drawn)", "activity change, negative = growth inhibition": "inactive: -5.59%"},
      {"smiles": "O=C(N/N=C\\c1c(O)ccc2ccccc12)c1cncc(Br)c1", "Potency": "active: 0.82 µM"},
      {"smiles": "Cc1c(Cl)cccc1NC(=S)NC1CCN(Cc2ccccc2)CC1", "Potency": "inconclusive [inhibitor, single point]"},
      {"smiles": "C[C@@H]1CN([C@@H](C)CO)C(=O)c2cc(Br)cnc2O[C@@H]1CN(C)Cc1ccc(Oc2ccccc2)cc1", "Potency": "active: 16.4 µM"},
      {"smiles": "Cc1ccc(Cn2c(=O)n(Cc3ccc(Cl)cc3)c(=O)c3cccnc32)cc1", "Potency": "inconclusive [inhibitor, single point]"},
      {"smiles": "Cc1cc(Cn2nc(C(=O)NCc3cccc(C(F)(F)F)c3)cc2-c2ccccc2)on1", "Potency": "inconclusive [inhibitor, single point]"},
      {"smiles": "Cc1ccc(Nc2ccccc2)cc1", "activity change, negative = growth inhibition": "inactive: -5.98%"},
      {"smiles": "CCCNC(=O)C1(C)CCN(Cc2ccc(Oc3ccccc3)cc2)C1", "note": "(stereo not drawn)", "Potency": "inconclusive [inhibitor, single point]"},
      {"smiles": "N=c1c[n+](N2CCOCC2)[n-]o1", "activity change, negative = growth inhibition": "inactive: -13.6%"},
      {"smiles": "CCOc1cccc(C(=O)Nc2ccncc2)c1", "Potency": "inconclusive [inhibitor, partial curve]"},
      {"smiles": "CC(C)CCNc1c(-c2cccs2)nc2ccccn12", "Potency": "inconclusive [inhibitor, single point]"},
      {"smiles": "Cc1ccc(C)c(NC(=O)CN2C(=O)c3ccccc3C2=O)c1", "activity change, negative = growth inhibition": "inactive: -8.55%"},
      {"smiles": "O=C(c1ccco1)N1CCc2[nH]nc(-c3ccccc3)c2C1", "activity change, negative = growth inhibition": "inactive: -10.3%"},
      {"smiles": "O=c1cc(CN2CCN(c3ccc(Cl)c(Cl)c3)CC2)c2c(ccc3ccccc32)o1", "Potency": "inconclusive [inhibitor, partial curve]"},
      {"smiles": "Cc1cc[n+](CC(=O)c2ccccc2)c2ccccc12", "Potency": "inactive"},
      {"smiles": "O=C(Cc1ccccc1)NNc1c2ccccc2nc2ccccc12", "Potency": "inconclusive [inhibitor, single point]"},
      {"smiles": "Cc1ccc(Nc2nc3c(c(=O)[nH]2)CCCC3)cc1", "Potency": "inconclusive [inhibitor, single point]"},
      {"smiles": "O=[N+]([O-])c1ccc(N2CCCCC2)nc1", "activity change, negative = growth inhibition": "inactive: 18.3%"},
      {"smiles": "NC(=O)C(c1ccc(Cl)cc1)c1ncc(C(F)(F)F)cc1Cl", "note": "(stereo not drawn)", "activity change, negative = growth inhibition": "inactive: -16.1%"},
      {"smiles": "COc1ccc(CSC(=N)N)cc1[N+](=O)[O-]", "Potency": "active: 23.1 µM"},
      {"smiles": "COc1ccc(NC(=O)CSc2nnc3ccc(-c4ccncc4)nn23)cc1OC", "activity change, negative = growth inhibition": "inactive: 5.15%"},
      {"smiles": "COc1ccc(C(CNC(=O)c2ccc(-c3ccccc3Cl)o2)N2CCCC2)cc1", "note": "(stereo not drawn)", "Potency": "active: 4.11 µM"},
      {"smiles": "NC(=O)c1ccsc1NC(=O)COC(=O)c1c(F)cccc1Cl", "Potency": "active: 8.2 µM"},
      {"smiles": "COc1cccc(NC(=O)C(=O)NCC(c2cccnc2)N2CCN(c3ccccc3)CC2)c1", "note": "(stereo not drawn)", "Potency": "active: 18.4 µM"},
      {"smiles": "CC(C)/C=C1\\CC/C(=C\\c2cccnc2)C1=O", "Potency": "active: 20.6 µM"},
      {"smiles": "C=CCOC(=O)C1=C[C@@H](c2ccccc2)[C@H](CCCO)[C@@H](OCC)O1", "Potency": "inconclusive [inhibitor, single point]"}
    ]}
  ]
}
